Data reported in the supplement of paper PMC8728848.
Some of the results follow.

Experiments:
Experiment in all cases: glycan array binding signal (z-score within array); higher = stronger binding
Conditions in all cases: glycan notation: IUPAC condensed, linker removed
[1] = biological target: Gal(b1-4)GlcNAc(b1-2)[Gal(b1-4)GlcNAc(b1-6)]Man(a1-6)[Gal(b1-4)GlcNAc(b1-2)Man(a1-3)]Man(b1-4)GlcNAc(b1-4)[Fuc(a1-6)]GlcNAc
Procedure, shortened: (§1)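 Arrays were curated from the Consortium for Functional Glycomics database, 3228 in total, and kept only where the protein sequence was available. Binding is expressed as a within-array Z-score. This score was averaged across arrays of the same protein sequence at different concentrations or buffers and across linkers, and negative values can be read as non-binding.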

[2] = biological target: Gal(b1-4)GlcNAc(b1-2)[Gal(b1-4)GlcNAc(b1-6)]Man(a1-6)[GlcNAc(b1-4)][Gal(b1-4)GlcNAc(b1-2)Man(a1-3)]Man(b1-4)GlcNAc(b1-4)GlcNAc
Procedure, shortened: as §1

[3] = biological target: Gal(b1-4)GlcNAc(b1-2)[Gal(b1-4)GlcNAc(b1-6)]Man(a1-6)[GlcNAc(b1-4)][Gal(b1-4)GlcNAc(b1-2)[Gal(b1-4)GlcNAc(b1-4)]Man(a1-3)]Man(b1-4)GlcNAc(b1-4)[Fuc(a1-6)]GlcNAc
Procedure, shortened: as §1

[4] = biological target: Gal(b1-4)GlcNAc(b1-3)Gal(b1-3)GalNAc
Procedure, shortened: as §1

[5] = biological target: Gal(b1-4)GlcNAc(b1-3)Gal(b1-3)GlcNAc
Procedure, shortened: as §1

[6] = biological target: Gal(b1-4)GlcNAc(b1-3)Gal(b1-4)Glc
Procedure, shortened: as §1

[7] = biological target: Gal(b1-4)GlcNAc(b1-3)Gal(b1-4)GlcNAc
Procedure, shortened: as §1

[8] = biological target: Gal(b1-4)GlcNAc(b1-3)Gal(b1-4)GlcNAc(b1-2)Man(a1-3)[Gal(b1-4)GlcNAc(b1-3)Gal(b1-4)GlcNAc(b1-2)Man(a1-6)]Man(b1-4)GlcNAc(b1-4)GlcNAc
Procedure, shortened: as §1

[9] = biological target: Gal(b1-4)GlcNAc(b1-3)Gal(b1-4)GlcNAc(b1-2)Man(a1-3)[Gal(b1-4)GlcNAc(b1-3)Gal(b1-4)GlcNAc(b1-2)Man(a1-6)]Man(b1-4)GlcNAc(b1-4)[Fuc(a1-6)]GlcNAc
Procedure, shortened: as §1

[10] = biological target: Gal(b1-4)GlcNAc(b1-3)Gal(b1-4)GlcNAc(b1-2)[Gal(b1-4)GlcNAc(b1-3)Gal(b1-4)GlcNAc(b1-6)]Man(a1-6)[Gal(b1-4)GlcNAc(b1-3)Gal(b1-4)GlcNAc(b1-2)Man(a1-3)]Man(b1-4)GlcNAc(b1-4)GlcNAc
Procedure, shortened: as §1

[11] = biological target: Gal(b1-4)GlcNAc(b1-3)Gal(b1-4)GlcNAc(b1-2)[Gal(b1-4)GlcNAc(b1-3)Gal(b1-4)GlcNAc(b1-6)]Man(a1-6)[Gal(b1-4)GlcNAc(b1-3)Gal(b1-4)GlcNAc(b1-2)Man(a1-3)]Man(b1-4)GlcNAc(b1-4)[Fuc(a1-6)]GlcNAc
Procedure, shortened: as §1

[12] = biological target: Gal(b1-4)GlcNAc(b1-3)Gal(b1-4)GlcNAc(b1-3)Gal(b1-4)GlcNAc
Procedure, shortened: as §1

[13] = biological target: Gal(b1-4)GlcNAc(b1-3)Gal(b1-4)GlcNAc(b1-3)Gal(b1-4)GlcNAc(b1-2)Man(a1-3)[Gal(b1-4)GlcNAc(b1-3)Gal(b1-4)GlcNAc(b1-3)Gal(b1-4)GlcNAc(b1-2)Man(a1-6)]Man(b1-4)GlcNAc(b1-4)GlcNAc
Procedure, shortened: as §1

[14] = biological target: Gal(b1-4)GlcNAc(b1-3)Gal(b1-4)GlcNAc(b1-3)Gal(b1-4)GlcNAc(b1-2)Man(a1-3)[Gal(b1-4)GlcNAc(b1-3)Gal(b1-4)GlcNAc(b1-3)Gal(b1-4)GlcNAc(b1-2)Man(a1-6)]Man(b1-4)GlcNAc(b1-4)[Fuc(a1-6)]GlcNAc
Procedure, shortened: as §1

[15] = biological target: Gal(b1-4)GlcNAc(b1-3)Gal(b1-4)GlcNAc(b1-3)Gal(b1-4)GlcNAc(b1-2)[Gal(b1-4)GlcNAc(b1-3)Gal(b1-4)GlcNAc(b1-3)Gal(b1-4)GlcNAc(b1-6)]Man(a1-6)[Gal(b1-4)GlcNAc(b1-3)Gal(b1-4)GlcNAc(b1-3)Gal(b1-4)GlcNAc(b1-2)Man(a1-3)]Man(b1-4)GlcNAc(b1-4)[Fuc(a1-6)]GlcNAc
Procedure, shortened: as §1

[16] = biological target: Gal(b1-4)GlcNAc(b1-3)Gal(b1-4)GlcNAc(b1-3)Gal(b1-4)GlcNAc(b1-3)Gal(b1-4)GlcNAc(b1-2)Man(a1-3)[Gal(b1-4)GlcNAc(b1-3)Gal(b1-4)GlcNAc(b1-3)Gal(b1-4)GlcNAc(b1-3)Gal(b1-4)GlcNAc(b1-2)Man(a1-6)]Man(b1-4)GlcNAc(b1-4)GlcNAc
Procedure, shortened: as §1

[17] = biological target: Gal(b1-4)GlcNAc(b1-3)Gal(b1-4)GlcNAc(b1-3)Gal(b1-4)GlcNAc(b1-3)Gal(b1-4)GlcNAc(b1-2)Man(a1-3)[Gal(b1-4)GlcNAc(b1-3)Gal(b1-4)GlcNAc(b1-3)Gal(b1-4)GlcNAc(b1-3)Gal(b1-4)GlcNAc(b1-2)Man(a1-6)]Man(b1-4)GlcNAc(b1-4)[Fuc(a1-6)]GlcNAc
Procedure, shortened: as §1

[18] = biological target: Gal(b1-4)GlcNAc(b1-3)Gal(b1-4)GlcNAc(b1-3)Gal(b1-4)GlcNAc(b1-3)Gal(b1-4)GlcNAc(b1-2)[Gal(b1-4)GlcNAc(b1-3)Gal(b1-4)GlcNAc(b1-3)Gal(b1-4)GlcNAc(b1-3)Gal(b1-4)GlcNAc(b1-6)]Man(a1-6)[Gal(b1-4)GlcNAc(b1-3)Gal(b1-4)GlcNAc(b1-3)Gal(b1-4)GlcNAc(b1-3)Gal(b1-4)GlcNAc(b1-2)Man(a1-3)]Man(b1-4)GlcNAc(b1-4)[Fuc(a1-6)]GlcNAc
Procedure, shortened: as §1

[19] = biological target: Gal(b1-4)GlcNAc(b1-3)Gal(b1-4)GlcNAc(b1-3)Gal(b1-4)GlcNAc(b1-3)Gal(b1-4)GlcNAc(b1-3)Gal(b1-4)GlcNAc(b1-2)Man(a1-3)[Gal(b1-4)GlcNAc(b1-3)Gal(b1-4)GlcNAc(b1-3)Gal(b1-4)GlcNAc(b1-3)Gal(b1-4)GlcNAc(b1-3)Gal(b1-4)GlcNAc(b1-2)Man(a1-6)]Man(b1-4)GlcNAc(b1-4)GlcNAc
Procedure, shortened: as §1

[20] = biological target: Gal(b1-4)GlcNAc(b1-3)Gal(b1-4)GlcNAc(b1-3)Gal(b1-4)GlcNAc(b1-3)Gal(b1-4)GlcNAc(b1-3)Gal(b1-4)GlcNAc(b1-2)Man(a1-3)[Gal(b1-4)GlcNAc(b1-3)Gal(b1-4)GlcNAc(b1-3)Gal(b1-4)GlcNAc(b1-3)Gal(b1-4)GlcNAc(b1-3)Gal(b1-4)GlcNAc(b1-2)Man(a1-6)]Man(b1-4)GlcNAc(b1-4)[Fuc(a1-6)]GlcNAc
Procedure, shortened: as §1

[21] = biological target: Gal(b1-4)GlcNAc(b1-3)Gal(b1-4)GlcNAc(b1-3)Gal(b1-4)GlcNAc(b1-3)Gal(b1-4)GlcNAc(b1-3)Gal(b1-4)GlcNAc(b1-2)[Gal(b1-4)GlcNAc(b1-3)Gal(b1-4)GlcNAc(b1-3)Gal(b1-4)GlcNAc(b1-3)Gal(b1-4)GlcNAc(b1-3)Gal(b1-4)GlcNAc(b1-6)]Man(a1-6)[Gal(b1-4)GlcNAc(b1-3)Gal(b1-4)GlcNAc(b1-3)Gal(b1-4)GlcNAc(b1-3)Gal(b1-4)GlcNAc(b1-3)Gal(b1-4)GlcNAc(b1-2)Man(a1-3)]Man(b1-4)GlcNAc(b1-4)[Fuc(a1-6)]GlcNAc
Procedure, shortened: as §1

[22] = biological target: Gal(b1-4)GlcNAc(b1-3)Gal(b1-4)GlcNAc(b1-3)Gal(b1-4)GlcNAc(b1-3)Gal(b1-4)GlcNAc(b1-3)Gal(b1-4)GlcNAc(b1-3)Gal(b1-4)GlcNAc(b1-2)Man(a1-3)[Gal(b1-4)GlcNAc(b1-3)Gal(b1-4)GlcNAc(b1-3)Gal(b1-4)GlcNAc(b1-3)Gal(b1-4)GlcNAc(b1-3)Gal(b1-4)GlcNAc(b1-3)Gal(b1-4)GlcNAc(b1-2)Man(a1-6)]Man(b1-4)GlcNAc(b1-4)GlcNAc
Procedure, shortened: as §1

[23] = biological target: Gal(b1-4)GlcNAc(b1-3)Gal(b1-4)GlcNAc(b1-3)GalNAc
Procedure, shortened: as §1

B1: LBL-152 (Laetiporus bicolor), B0D650 (protein)
chain: MSNEYNPPLGIAFRLCGLASDRVLFSRVSPSPEVFHHPKSEVYPDQWFVAIPGSGQNAGCYAIKSKNTGKVLFSRMSPDPRVGHIDGDGKYPDNWFKFEAGSGKYAGYFRLRAVASDTVLVSRTSTGTDTQVINYPATSAKYDDQYFTILFDHHHHHH
Q: What does the source list for B1?
A: glycan array binding signal (z-score) [1]: -0.009; glycan array binding signal (z-score) [2]: -0.133; glycan array binding signal (z-score) [3]: 0.289; glycan array binding signal (z-score) [4]: -0.156; glycan array binding signal (z-score) [5]: -0.154; glycan array binding signal (z-score) [6]: -0.149; glycan array binding signal (z-score) [7]: -0.11; glycan array binding signal (z-score) [8]: 0.44; glycan array binding signal (z-score) [9]: 1.07; glycan array binding signal (z-score) [10]: -0.112; glycan array binding signal (z-score) [11]: 0.973; glycan array binding signal (z-score) [12]: -0.026; glycan array binding signal (z-score) [13]: 2.62; glycan array binding signal (z-score) [14]: 5.46; glycan array binding signal (z-score) [15]: 4.41; glycan array binding signal (z-score) [16]: 5.39; glycan array binding signal (z-score) [17]: 8.72; glycan array binding signal (z-score) [18]: 6.24; glycan array binding signal (z-score) [19]: 10.6; glycan array binding signal (z-score) [20]: 9.73; glycan array binding signal (z-score) [21]: 7.26; glycan array binding signal (z-score) [22]: 5.94; glycan array binding signal (z-score) [23]: -0.155
